The other results are listed elsewhere or left out. At the low end of the ranking, values are background and their order means little.
Molecular target: GST-SBP-SLBP (stem-loop binding protein) (UniProt Q14493)
Test: targeted RNA Bind-n-Seq;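 also: DESeq read counts versus GST-SBP nonspecific binding control pulldown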
Details: RBNS binding buffer: 25 mM Tris pH 7.5, 150 mM KCl, 3 mM MgCl2, 0.1% Tween, 0.5 mg/mL BSA, 1 mM DTT; 27 nM protein, 750 pM RNA pool; temperature not stated; high values mean tight binding

Row | Sequence | binding signal (log2 fold change)
1 | GGUCACGUCUCAAUCAACUCCAACGAGGGGGGGAAAACCCCUUUACCCUCACUUUCAACAGCUCGCAGUCAAG | 0.215
2 | GGUCACGUCUCAAUCAACUCAAUUUCCAGGGAAAGCCCUGGUUUUUUCAACAGCUCGCAGUCAAG | -0.0813
3 | GGUCACGUCUCAAUCAACUCAAUCCCCAGGGAAAGCCCUGGCAUACUCAACAGCUCGCAGUCAAG | 0.106
4 | GGUCACGUCUCAAUCAACUCUAGUCCCAGGGAAAUCCCUGGCAAUUUCAACAGCUCGCAGUCAAG | -0.236
5 | GGUCACGUCUCAAUCAACUCUUUCCCCAGGGAAACCCCUGGUUAAUUCAACAGCUCGCAGUCAAG | 0.228
6 | GGUCACGUCUCAAUCAACUCACUAGAGGGGGGGAAAACCCCUUUACCCUCAUCAUCAACAGCUCGCAGUCAAG | -0.194
7 | GGUCACGUCUCAAUCAACUCAUCUUCAGGAGUUUUCUCCUGUAAUUUCAACAGCUCGCAGUCAAG | 0.0704
8 | GGUCACGUCUCAAUCAACUCUUUCUCAGGAGUUUACUCCUGUAAUGUCAACAGCUCGCAGUCAAG | 0.198
9 | GGUCACGUCUCAAUCAACUCUUUAGAGGGGGGGAAAACCCCUUUGCCCUCAAAUUCAACAGCUCGCAGUCAAG | -0.337
10 | GGUCACGUCUCAAUCAACUCAUUUUCCAGGGAAAUCCCUGGCAUUUUCAACAGCUCGCAGUCAAG | -0.0699
11 | GGUCACGUCUCAAUCAACUCAUUUCCCAGGGAAAACCCUGGUAUUUUCAACAGCUCGCAGUCAAG | 0.171
12 | GGUCACGUCUCAAUCAACUCAACAGAGGGGGGGAAAACCCCUUUACCCUCAAAUUCAACAGCUCGCAGUCAAG | 0.0512
13 | GGUCACGUCUCAAUCAACUCAUCCCCCAGGGAAAGCCCUGGUAAUUUCAACAGCUCGCAGUCAAG | 0.0505
14 | GGUCACGUCUCAAUCAACUCAUCAGAGGGGGGGAAAACCCCUUUACCCUCACACUCAACAGCUCGCAGUCAAG | -0.193
15 | GGUCACGUCUCAAUCAACUCUACUCCAGGAGUUUCCUCCUGUAAUUUCAACAGCUCGCAGUCAAG | -0.00113
16 | GGUCACGUCUCAAUCAACUCAAUGUCCAGGGAAAUCCCUGGUUUUCUCAACAGCUCGCAGUCAAG | -0.133
17 | GGUCACGUCUCAAUCAACUCAUUUCCCAGGGAAAGCCCUGGUUUAUUCAACAGCUCGCAGUCAAG | 0.222
18 | GGUCACGUCUCAAUCAACUCUUCCCCCAGGGAAACCCCUGGCUUUUUCAACAGCUCGCAGUCAAG | -0.07
19 | GGUCACGUCUCAAUCAACUCUAUUCCAGGAGUUUUCUCCUGUAUUCUCAACAGCUCGCAGUCAAG | -0.00782
20 | GGUCACGUCUCAAUCAACUCUUUCGAGGGGGGGAAAACCCCUUUGCCCUCAUUUUCAACAGCUCGCAGUCAAG | -0.317
21 | GGUCACGUCUCAAUCAACUCCCAAGAGGGGGGGAAAACCCCUUUACCCUCGAUAUCAACAGCUCGCAGUCAAG | 0.21
22 | GGUCACGUCUCAAUCAACUCAUCUUCAGGAGUUUCCUCCUGUUAACUCAACAGCUCGCAGUCAAG | 0.0391
23 | GGUCACGUCUCAAUCAACUCAUUCUCCAGGGAAAGCCCUGGUAUAUUCAACAGCUCGCAGUCAAG | -0.106
24 | GGUCACGUCUCAAUCAACUCAAGUCCAGGAGUUUCCUCCUGUAAAUUCAACAGCUCGCAGUCAAG | -0.15

Row | Sequence | binding signal (log2 fold change)
25 | GGUCACGUCUCAAUCAACUCUAUUCCCAGGGAAAGCCCUGGCAUAUUCAACAGCUCGCAGUCAAG | 0.211
26 | GGUCACGUCUCAAUCAACUCAUCGCCAGGAGUUUACUCCUGCAUAUUCAACAGCUCGCAGUCAAG | 0.125
27 | GGUCACGUCUCAAUCAACUCUUCCUCAGGAGUUUACUCCUGUAUAUUCAACAGCUCGCAGUCAAG | -0.0799
28 | GGUCACGUCUCAAUCAACUCAACUUCCAGGGAAAUCCCUGGCAAACUCAACAGCUCGCAGUCAAG | 0.0464
29 | GGUCACGUCUCAAUCAACUCAUCUCCCAGGGAAACCCCUGGCAAAUUCAACAGCUCGCAGUCAAG | -0.0255
30 | GGUCACGUCUCAAUCAACUCAAUCCCAGGAGUUUUCUCCUGCAUAGUCAACAGCUCGCAGUCAAG | 0.157
31 | GGUCACGUCUCAAUCAACUCAACUCCCAGGGAAAUCCCUGGUAAAUUCAACAGCUCGCAGUCAAG | 0.152
32 | GGUCACGUCUCAAUCAACUCAAAAGAGGGGGGGAAAACCCCUUUGCCCUCACCGUCAACAGCUCGCAGUCAAG | 0.0854
33 | GGUCACGUCUCAAUCAACUCAUCUUCCAGGGAAAACCCUGGCAUUUUCAACAGCUCGCAGUCAAG | -0.0497
34 | GGUCACGUCUCAAUCAACUCCAAAGAGGGGGGGAAAACCCCUUUACCCUCAUCAUCAACAGCUCGCAGUCAAG | 0.0532
35 | GGUCACGUCUCAAUCAACUCCUAAGAGGGGGGGAAAACCCCUUUGCCCUCCAAAUCAACAGCUCGCAGUCAAG | 0.0614
36 | GGUCACGUCUCAAUCAACUCUUUUUCCAGGGAAACCCCUGGUAUUUUCAACAGCUCGCAGUCAAG | -0.285
37 | GGUCACGUCUCAAUCAACUCAUCCCCCAGGGAAAACCCUGGUUAACUCAACAGCUCGCAGUCAAG | 0.137
38 | GGUCACGUCUCAAUCAACUCUACUUCCAGGGAAAGCCCUGGUAUACUCAACAGCUCGCAGUCAAG | -0.0277
39 | GGUCACGUCUCAAUCAACUCAUCCCCCAGGGAAAGCCCUGGCUUUCUCAACAGCUCGCAGUCAAG | 0.0581
40 | GGUCACGUCUCAAUCAACUCACUCGAGGGGGGGAAAACCCCUUUACCCUCAACCUCAACAGCUCGCAGUCAAG | 0.19
41 | GGUCACGUCUCAAUCAACUCAUCCGCAGGAGUUUACUCCUGGAAAUUCAACAGCUCGCAGUCAAG | -0.174
42 | GGUCACGUCUCAAUCAACUCUUCUUCCAGGGAAAACCCUGGUAUACUCAACAGCUCGCAGUCAAG | -0.0494
43 | GGUCACGUCUCAAUCAACUCCAAAGAGGGGGGGAAAACCCCUUUACCCUCAAUAUCAACAGCUCGCAGUCAAG | 0.076
44 | GGUCACGUCUCAAUCAACUCAGUUUCAGGAGUUUUCUCCUGUUUUCUCAACAGCUCGCAGUCAAG | 0.217
45 | GGUCACGUCUCAAUCAACUCCACAGAGGGGGGGAAAACCCCUUUACCCUCAACUUCAACAGCUCGCAGUCAAG | -0.451
46 | GGUCACGUCUCAAUCAACUCAACGCCAGGAGUUUCCUCCUGUAAUUUCAACAGCUCGCAGUCAAG | 0.0807
47 | GGUCACGUCUCAAUCAACUCUAUUUCCAGGGAAACCCCUGGUUUAUUCAACAGCUCGCAGUCAAG | -0.229

Source: PMC5892938
